Measured values reported in the supplement of paper PMC3334620.
Whole data set: some 33,000 sequences, median “E-score (-0.5 to 0.5)” near -0.017, cut for the highest 2% near 0.3. Some of the results follow.

biological target: T1, Sut1 (UniProt P53032); test: PBM E-score (8-mer binding enrichment) (E-score (-0.5 to 0.5)); higher = stronger / more preferred TF binding; most listed sequences are background and not binding sites; conditions: protein concentration: 200 nM; construct: GST-full length
T1 sequence: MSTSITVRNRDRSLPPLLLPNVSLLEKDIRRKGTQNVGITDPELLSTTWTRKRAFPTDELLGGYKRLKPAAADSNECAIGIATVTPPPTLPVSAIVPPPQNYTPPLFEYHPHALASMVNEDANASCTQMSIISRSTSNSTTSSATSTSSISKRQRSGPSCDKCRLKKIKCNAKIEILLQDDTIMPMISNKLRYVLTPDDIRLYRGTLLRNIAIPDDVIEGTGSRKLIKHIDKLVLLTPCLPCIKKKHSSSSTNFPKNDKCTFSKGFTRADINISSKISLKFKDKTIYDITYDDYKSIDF
How it was run: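 Bound GST-tagged yeast transcription factors, applied at about 100-200 nM to double-stranded universal all-10-mer Agilent arrays, were detected with fluorescent anti-GST. Scans were normalised with masliner. A modified Wilcoxon-Mann-Whitney statistic, the E-score, was assigned to each ungapped eight-base word pooled with its reverse complement by the Universal PBM Analysis Suite.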

In order of rising “PBM E-score” value:
1. ACCCCCCT  -0.392
2. GGAGGAGA  -0.313
3. ACCCTCGT  -0.291
4. CCTCCCAA  -0.281
5. TAGTGCCA  -0.281
6. CGTGGGCA  -0.279
7. CCAGTGAC  -0.274
8. CTGGCGAC  -0.269
9. ACCCTCAT  -0.22
10. ATGGTGAG  -0.213
11. CGACTGTA  -0.196
12. GGATCGCA  -0.193
13. GCCGATAC  -0.19
14. CATCGCTC  -0.19
15. CTGCCGCC  -0.183
16. AGACTGCG  -0.174
17. ATCGCACC  -0.165
18. GCTGGGTA  -0.163
19. ACTAGCAC  -0.161
20. GTGCGACA  -0.159
21. GCTTGAGA  -0.159
22. ACTTATGG  -0.158
23. GAGCGCTC  -0.153
24. CGTATCGA  -0.152
25. AAGCAGTC  -0.152
26. ATACCGCG  -0.147
27. CTAGACGA  -0.143
28. AGGCAACC  -0.135
29. CAGGCTGC  -0.129
30. ACGCTAGA  -0.129
31. CCCCTAAA  -0.127
32. GGCGTACC  -0.124
33. GATGACCC  -0.122
34. ACGCTGCT  -0.116
35. AGGACAGA  -0.112
36. CAGACATC  -0.101
37. GATCTCGC  -0.0977
38. CTGGAGTC  -0.0964
39. CGCGGGAC  -0.0931
40. AAAGGCGC  -0.0925
41. GACCAGTC  -0.0905
42. CTCGCACC  -0.09
43. ATGCACTC  -0.0896
44. AGGATTCA  -0.0848
45. CTTGAGAA  -0.0815
46. GTTGGACA  -0.0794
47. CCAGGAGA  -0.0772
48. ACGCAAGT  -0.0761
49. TACTGTCA  -0.0755
50. ATTCCCAG  -0.0741
51. CCAAGTGA  -0.0738
52. ATCTGCCC  -0.0676
53. CATGGAGA  -0.0668
54. AACGTTCC  -0.0663
55. CCACTCGA  -0.0621
56. CGTCTCTA  -0.0494
57. AGTACGGC  -0.0481
58. GTTGCCTA  -0.044
59. CATGGCAC  -0.041
60. GTACTCAC  -0.0386
61. TATTCTGA  -0.0371
62. CATGGTAA  -0.036
63. AGCAATGG  -0.0356
64. ACAGTGAT  -0.0348
65. CACGCATC  -0.0275
66. CTACCGAA  -0.0231
67. CCATACGA  -0.023
68. AACCAGGC  -0.0223
69. CGAAATGC  -0.0217
70. AACGGCAG  -0.0217
71. AATGCGGG  -0.0213
72. AACCGTCA  -0.0173
73. ACAGATAG  -0.0172
74. CACTTCCG  -0.0144
75. ACTCGAAC  -0.0124
76. CTCCAAGA  -0.0109
77. AGTACCAC  -0.00996
78. CAAGTTGA  -0.00947
79. GCTAGTGA  -0.00823
80. CGTGAGAA  -0.00194
81. AACGAGTG  -0.00112
82. TAGGTAGA  -0.00102
83. TCGTGAGA  0.00022
84. AAGGCGAA  0.00249
85. CGGCGCAG  0.00289
86. AGACTGGG  0.00426
87. TAACGGTA  0.00821
88. ACCGGCAT  0.012
89. ACCGAGGA  0.015
90. ACACCGGC  0.0168
91. CCATTGAG  0.0176
92. ATAGAAAG  0.0197
93. AACATTGA  0.0205
94. ATGGAAGC  0.0216
95. CAAATTGC  0.0275
96. CTATGGAG  0.0304
97. TAACAGGA  0.0331
98. GGCTAGTA  0.0422
99. ATTTCGTA  0.0444
100. CGCCTAAC  0.0446
101. AACTTCTC  0.05
102. AATTGCGC  0.0566
103. ACGTATAC  0.0611
104. AGGAATGA  0.0636
105. CAATTCTC  0.0643
106. TTCGCGAA  0.0656
107. ACACCGGG  0.0688
108. ACTTCCCG  0.0708
109. GACCATCA  0.0723
110. AGTATGTA  0.0786
111. GTCTGAAC  0.0811
112. ATACCTAC  0.0855
113. ATTAGGAG  0.0863
114. CTTTCCAC  0.0876
115. AGTTAGGA  0.0901
116. GAATTGCA  0.0925
117. CTTGAATA  0.0931
118. CCTGATAA  0.095
119. TACTTTGA  0.0956
120. ATATGCTA  0.0969
121. AAGGTTCC  0.0977
122. AAACTTAG  0.099
123. CCGGTTAG  0.1
124. CCGATTTC  0.1
125. CCTAACAA  0.102
126. ATAGTTTA  0.102
127. AAGTTTAC  0.108
128. ATTGTGTC  0.112
129. TCAAGTCA  0.113
130. CCCCGCCC  0.116
131. AAGTAAGT  0.123
132. ACAATCTG  0.123
133. CATAGATA  0.126
134. ATCAAGTA  0.126
135. AACAGTAT  0.127
136. AAGTAAAG  0.139
137. ATATGAAC  0.143
138. ACGTTTTC  0.143
139. TACTATGA  0.143
140. AACCTTCG  0.144
141. ATACCAAA  0.149
142. GAACTAGA  0.15
143. GTTTTGAA  0.151
144. TTGTCAAA  0.152
145. TATCCTAA  0.156
146. ATTTATTG  0.16
147. CCTTCAAA  0.163
148. AAGAATTC  0.178
149. CCGATAAC  0.18
150. CAACAATA  0.181
151. TCGATACA  0.181
152. CCAGCTCC  0.185
153. AGTTGTAA  0.194
154. GCTTCTAC  0.21
155. CCGGTGAC  0.211
156. AGTTAGTC  0.216
157. GTATTAAA  0.236
158. ATTAAAAA  0.243
159. GGCGGTAA  0.244
160. CTTCACTA  0.252
161. GCAAATAA  0.257
162. ACTTATAC  0.264
163. TAGTAAAA  0.268
164. CGGAAAGC  0.275
165. ATTTTATA  0.276
166. AAAGTTAA  0.291
167. GGGTCCGA  0.295
168. GTCCGGCA  0.317
169. AGTCGGAC  0.337
170. GGAGTTTA  0.396
171. CTCCGATA  0.432
172. ATACTCCG  0.487
